Experimental findings from PubChem BioAssay AID1346428 (National Center for Advancing Translational Sciences (NCATS), 2018) are described below.

Several values for one entry are separate records, joined by “and”; a condition that tells them apart may be missing. Identical values can stand only once. In all, about 48,000 compounds went through this assay and about 1,200 (2.5%) were called active. Not shown: some 2% with an inconclusive outcome.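 Rule for the calls: active = activation of at least 60% and not above a set upper limit (about 1 call in 100 departs from these limits); inconclusive = activation of 40% to 60%, or above that upper limit; inactive = activation under 40%.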 The list shows a part of the results.

UniProt O75388, sequence (O75388 whole entry, looked up): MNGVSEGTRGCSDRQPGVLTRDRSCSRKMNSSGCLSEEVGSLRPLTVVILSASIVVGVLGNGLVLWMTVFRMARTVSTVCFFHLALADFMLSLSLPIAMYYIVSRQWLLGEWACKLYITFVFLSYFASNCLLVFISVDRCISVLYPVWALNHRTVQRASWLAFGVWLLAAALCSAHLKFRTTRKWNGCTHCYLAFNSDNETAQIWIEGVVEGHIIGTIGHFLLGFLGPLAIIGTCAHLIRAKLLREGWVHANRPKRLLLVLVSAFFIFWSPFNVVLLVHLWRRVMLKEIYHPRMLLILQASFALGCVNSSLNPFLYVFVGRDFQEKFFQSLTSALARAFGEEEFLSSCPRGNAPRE

The target in the assay is Probable G-protein coupled receptor 32 (Homo sapiens) (UniProt O75388). Description: qHTS for Agonists of Human Resolvin D1 Receptor DRV1. As to conditions: CHO-K1 GPR32 beta-arrestin PathHunter luminescence, 90 min; at 76.9 µM; hits give high values; zero percent set by DMSO-only wells. The method, boiled down:
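Using DMSO wells as EC0, agonist-induced signal was taken as chemiluminescence from beta-Gal reconstituted upon beta-arrestin recruitment to GPR32 in CHO-K1 cells after 90 min compound treatment.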
(In general: qHTS replaces the single test concentration by a dilution series.)
On to `Cc1ccc(CNC(=O)c2ccc3c(=O)n(-c4ccccc4)c(=O)[nH]c3c2)cc1`, for which the activation is inactive: -6.94%.
Next, `COc1ccc2c(c1)CCc1c(C(=O)Nc3c(C)nn(Cc4ccc(Cl)c(Cl)c4)c3C)noc1-2`: inactive: -2.89%.
Next, `Cc1ccc(S(=O)(=O)c2nc(-c3cccc(C)c3)oc2N2CCN(c3ccccc3)CC2)cc1`: inactive: -9.74%; `Cc1ccc2c(c1)cc1c(=O)n(CC(=O)NC3CCCCC3)nc(C)n12`: inactive: -3.13%.
Next, `CC(=O)c1cc(C(=O)Nc2cc(C)cc(C)c2)c2ccccn12`: inactive: -4.03%; `COC(=O)C(CCSC)NC(=O)c1cc2c(n(-c3ccc(C)cc3)c1=O)CC(C)(C)CC2=O` (configuration not stated): inactive: 1.55%.
With `CCc1ccccc1NC(=O)CSc1nc(-c2ccccc2OC)nc2c1Cc1c(CO)cnc(C)c1O2`, the activation was inactive: -28.3%.
For `Cc1cccn2c(=O)c3cc(C(=O)NCc4ccccc4)c(=N)n(CCOCCO)c3nc12`, the activation is inactive: 3.91%.
For the compound `CCOC(=O)CC1c2cc(OCC)c(OCC)cc2CCN1C(=O)Nc1cccc(Cl)c1` (configuration not stated), the activation was inactive: -20.9%.
Next, `CCCc1ccc(S(=O)(=O)N2CCC(Oc3ccc(-n4cnnn4)cc3)CC2)cc1`: inactive: 2.05%.
Then `CNC1(C)C2CCC(C2)C1(C)C` (configuration not stated), with inactive: -10.5% and inactive: 1.59%; and `CCOC(=O)c1[nH]c(C)c(CCC(=O)NCc2ccccc2Cl)c1C`, with inactive: -12.6%.
For `CNC(=O)c1ccc(Nc2nnc(-c3ccc(C)c(S(=O)(=O)N(C)C)c3)c3ccccc23)cc1`, the activation is inactive: 6.03%.
Next, `Cc1ccc(NC(=O)CSc2nc(=O)n(CCCN(C)C)c3c2CCC3)cc1F`: inactive: -10.1%.
Turning to `O=C(NCc1ccccc1)c1ccc2c(c1)CCN2S(=O)(=O)c1ccccc1`, the activation was inactive: -24.4%.
Then `CCC(=O)Nc1ccc(-c2nnc3c4ccccc4c(C)nn23)cc1`, with inactive: -0.898%; and `NC(=O)C1(N2CCCCC2)CCN(CCCC(=O)c2ccc(F)cc2)CC1`, with inactive: 3.09%.
`COc1ccc(CCNC(=O)CCCn2c(=O)c3ccccc3n(Cc3c(C)cc(C)cc3C)c2=O)cc1OC`: the activation is inactive: 1.56%.
Next, `CCC(=O)N1c2ccc(S(=O)(=O)N3CCC(C)CC3)cc2CC1C` (configuration not stated): inactive: -8.29%; `CCCCC(CC)CNC(=O)C1CCC(CNS(=O)(=O)c2cccc3nsnc23)CC1` (configuration not stated): inactive: 20.4%.
Regarding `Cc1cc(C)cc(OCCCn2c(CCNC(=O)C3CCCCC3)nc3ccccc32)c1`, the activation was inactive: -13.3%.
Take `Cc1ccc(C)c(NC(=O)Cn2cc(C(=O)c3ccc(Cl)cc3)c(=O)c3ccc(C)nc32)c1`: the activation is inactive: 12%.
With `O=C(CC1C(=O)OCCN1Cc1ccccc1)Nc1ccc(F)cc1` (configuration not stated), the activation was inactive: -2.42%.
Then `N#Cc1ccc(CSc2nc3c(c(=O)[nH]2)CCC3)cc1`, with inactive: 12.5%; and `COc1cc(NC(=O)CSc2nc(-c3ccc(C)cc3)nc3c2Cc2ccccc2O3)cc(OC)c1`, with inactive: 7.6%; and `Cc1cccc(C)c1-n1ncc(C(=O)N2CCN(c3ccccn3)CC2)c1C1CCN(C(=O)OC(C)(C)C)CC1`, with inactive: -0.687%.
Next, `CC1CCN(S(=O)(=O)c2ccc(C(=O)Nc3sc4c(c3C(N)=O)CC(C)(C)NC4(C)C)cc2)CC1`: inactive: -30.1%; `CCC1CCc2nc3sc(C(=O)Nc4ccc(F)cc4F)c(N)c3cc2C1` (configuration not stated): inactive: 21.7%.
Consider `CCOC(=O)c1cc(C)n(CC2CCC(C(=O)Nc3ccc(Cl)cc3)CC2)c1C` (configuration not stated), for which the activation was inactive: -3.24%.
As to `COc1cc(NS(=O)(=O)c2ccc(NC(=O)c3ccccc3C(=O)O)cc2)nc(OC)n1`, the activation was inactive: -4.27%.
Then `CCCCNC(=O)CSc1nc2nc(C)c(Cc3ccccc3C)c(C)n2n1`, with inactive: -16.2%.
With `COc1cc(OC)c(NC(=O)NC(C)c2c(-n3cccc3)sc(C)c2C)cc1Cl` (configuration not stated), the activation is inactive: -20.7%.
Then `Cc1ccc2cccc(NC(=O)c3ccc(-c4cccc([N+](=O)[O-])c4)o3)c2n1`, with inactive: 34.5%.
For the compound `CCOc1ccc(CCNC(=O)Cn2nnc(-c3ccccc3)n2)cc1OCC`, the activation is inactive: -0.315%.
Next, `CC(=O)Nc1cccc(C(=O)NCc2ccc3c(c2)CCN3C(=O)c2ccccc2)c1`: inactive: -9.74%.
Then `COc1ccc(/C=C/c2nc(C#N)c(NCCc3ccc(OC)c(OC)c3)o2)cc1OC`, with inactive: -2.73%; and `COc1cccc(C(=O)Nc2cc(-c3ccccc3)no2)c1`, with inactive: 7.47%; and `CC(C)CC(=O)Nc1ccc(C(=O)OCc2cc(=O)n3nc(C(C)C)sc3n2)cc1`, with inactive: 0.802%.
Then `CCOC(=O)c1sc(NC(=O)/C=C/c2ccc(OCC)cc2)c(C(=O)OCC)c1C`, with inactive: 1.83%; and `COc1ccc(C(=O)N2CC(=O)Nc3ccc(F)cc3C2c2ccc(F)cc2)c(OC)c1` (configuration not stated), with inactive: -17.9%.
Consider `CCOc1ccccc1NC(=O)Cn1cnc2onc(-c3ccc(F)cc3)c2c1=O`, for which the activation was inactive: -1.94%.
Next, `O=C(OCc1cc(=O)n2nc(C3CC3)sc2n1)c1ccc(F)cc1`: inactive: -21.2%; `CCCc1nc(C)c2c(=O)[nH]c(-c3cc(S(=O)(=O)N4CCN(CC)CC4)ccc3OCC)nn12`: inactive: 12.3%; `Cc1cc(C)cc(NS(=O)(=O)c2ccc3[nH]cc(C(=O)N4CCCC4)c(=O)c3c2)c1`: inactive: -4.92%.
Next, `CC(C)CC(NS(=O)(=O)c1ccc2c(c1)oc(=O)n2C)C(=O)NCCc1ccc(Cl)cc1` (configuration not stated): inactive: 2.87%; `COC(=O)c1ccc(NC(=O)c2cc(S(=O)(=O)N3CCc4ccccc43)cn2C)cc1`: inactive: -15.4%; `Cc1ccc(NC(=O)c2oc3ccccc3c2NC(=O)c2cc3ccccc3o2)cc1`: inactive: -2.33%.
As to `O=C(CSc1cn(CCNC(=O)c2c(F)cccc2F)c2ccccc12)Nc1ccc2c(c1)OCCO2`, the activation is active: 68.5%.
Then `COc1ccc(-n2c(=O)c3ccc(C(=O)NCc4ccc(C)cc4)cc3n(CC(=O)Nc3ccc(F)cc3)c2=O)cc1`, with active: 93.6%; and `CCCCc1nnc(SCc2cc(=O)c3cc(C(=O)OCC)ccc3[nH]2)n1C`, with inactive: -4.53%.
Next, `O=C(NCc1cccnc1)C1CCN(Cc2cc3ccccc3n2Cc2cccc(Cl)c2)CC1`: inactive: 14.6%; `O=C(Nc1cccc(C(=O)N2CCN(c3ccc(Cl)cc3)CC2)c1)c1nsc2ccccc12`: inactive: -1.67%.
